Reference: PubChem BioAssay AID1347073 (National Center for Advancing Translational Sciences (NCATS), 2019)
About 200 (0.44%) of roughly 45,000 compounds were called active. About 7% were inconclusive and are not listed. The call rests on the fitted dose curve; in most records, active means well fitted activation curve with a large enough effect; inconclusive means small, poorly fitted or top-dose-only effect; inactive means no such curve, though single readings can be large or run the other way. This is one part of the list.

Test: qHTS of TDP-43 Inhibitors: NCGC Sytravon Library Screen; further: 0% is about no effect; nearly all actives have a fitted effect of over 55% in size
Settings: yeast TDP-43 toxicity rescue, BacTiter-Glo growth, 24 h; series mostly up to 46.1 µM; growth rescue (activation): at the top concentration
Outline: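 TDP-43-expressing yeast, pregrown in raffinose, seeded at OD600 0.02 in galactose medium with compound for 24 hr at 30 deg C. Growth read by BacTiter-Glo luminescence, so rescue of toxicity appears as activation.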

Row | SMILES | growth rescue (activation)
1 | COC1=CCC2([N+](=O)[O-])CN(CCO)CC1([N+](=O)[O-])C2 (stereo unspecified) | inactive: -1.53%
2 | CCOc1cccc(C(=O)Nc2ccc(N3CCCC3)cc2)c1 | inactive: 13.7%
3 | Cc1ccc(C2CCN(C(=S)NC(C)C)C2)cc1 (stereo unspecified) | inactive: 23%
4 | COc1ccc(C2=NN(C(=O)COc3ncnc4ccccc34)C(c3ccco3)C2)cc1 (stereo unspecified) | inactive: 4.3%
5 | COc1cc(NC(=S)N2CCN(C(=O)c3ccco3)CC2)c(OC)cc1Cl | inactive: -5.75%
6 | COc1cccc(-c2nc(-c3cccs3)no2)c1 | inactive: -0.886%
7 | O=C(COC(=O)Cc1c(F)cccc1Cl)Nc1ccc2[nH]c(=O)[nH]c2c1 | inactive: -13.7%
8 | CNc1nc(N/N=C/c2cc3c(cc2[N+](=O)[O-])OCO3)nc(Nc2ccccc2)n1 | inactive: 24.2%
9 | Cc1sc2ncnc(SCC(=O)Nc3ccc(S(=O)(=O)N4CCOCC4)cc3)c2c1C | inactive: -11.5%
10 | COc1cccc(/C=N/NC(=O)CNC(=O)c2ccc3c(c2)OCCO3)c1O | inactive: 7.05%
11 | Cc1ccc(NCc2cccn2-c2nnc(N3CCC(C(=O)NCc4ccccc4C)CC3)s2)cc1 | inactive: 0.524%
12 | COc1ccc([N+](=O)[O-])cc1-n1cccc1 | inactive: -13%
13 | Cc1nn(-c2ccccc2)cc1/C=N/NS(=O)(=O)c1ccccc1 | inactive: 17.4%
14 | CC1(c2ccccc2Cl)NC(=O)N(CC(=O)N2CCc3ccccc32)C1=O (stereo unspecified) | inactive: -15.5%
15 | Cc1cc(NC(=O)C2CC(=O)N(c3cccc(C)c3C)C2)no1 (stereo unspecified) | inactive: 16%
16 | O=C(Cc1c(Cl)cccc1Cl)OCc1ccccn1 | inactive: -27%
17 | CN(C(=O)CSc1nc2ccc(NC(=O)COc3ccc(F)cc3)cc2s1)c1ccccc1 | inactive: 35%
18 | Cc1cccc(N(CC(=O)NC2CCCC2)C(=O)CNC(=O)c2ccco2)c1C | inactive: 6.29%
19 | C#CCSc1nc(N)c2c(n1)OC(N)=C(C#N)C2c1cccnc1 (stereo unspecified) | inactive: 6.29%
20 | CCc1[nH]nc(C(=O)N2CCCC(N3CCN(c4ccccc4C)CC3)C2)c1C (stereo unspecified) | inactive: 1.99%
21 | NS(=O)(=O)c1ccc(CNC(=O)c2ccc(S(=O)(=O)C(F)F)cc2)cc1 | inactive: 27.6%
22 | COc1ccc(NC(=O)C2CC(=O)N/C(=N/NC(=O)c3ccc(Cl)cc3)S2)cc1 (stereo unspecified) | inactive: 14.1%

Row | SMILES | growth rescue (activation)
23 | CCN(Cc1ccccc1)c1ccc(/C=N/NS(=O)(=O)c2ccc(C)c([N+](=O)[O-])c2)cc1 | inactive: -9.87%
24 | COc1cc(-c2cc(C(=O)Nc3ccc(S(N)(=O)=O)cc3)c3ccccc3n2)cc(OC)c1OC | inactive: -5.08%
25 | CN1CCC(=NNC(=O)c2cc(-c3ccc(Cl)cc3)n[nH]2)CC1 | inactive: 0.174%
26 | Cc1ccc(C(=O)NC2CCCCCC2)cc1S(=O)(=O)N1CCOCC1 | inactive: -13.6%
27 | COc1ccc(-n2nc(C(=O)NCC(=O)NCc3ccccc3OC)c3ccccc3c2=O)cc1 | inactive: 8.99%
28 | CCN(CC(=O)Nc1c(F)cccc1F)C(=O)CCc1c[nH]c2ccccc12 | inactive: 13.4%
29 | COc1ccc(OCC(=O)O/N=C(\N)c2ccc(OC)cc2)cc1 | inactive: 24%
30 | CCOC(=O)c1c(NC(=S)NC)sc2c1CC(C)(C)SC2 | inactive: 23.6%
31 | CCOc1cc(/C=C2/SC(=S)NC2=O)ccc1OC(=O)c1ccco1 | inactive: -6.66%
32 | CC1(C(=O)NC2CCCCCC2)CCN1C(=O)Cc1ccc(-c2ccccc2)cc1 (stereo unspecified) | inactive: 19.1%
33 | CC(/C=N\NC(=O)CN1CCN(S(=O)(=O)c2ccc(C)cc2)CC1)=C\c1ccccc1 | inactive: 13.8%
34 | CC(C)CC(=O)N1CCN(Cc2ccc(Br)cc2)CC1 | inactive: 2.26%
35 | COc1ccccc1/C=C(/C(=O)OCC(=O)N(C)Cc1ccccc1)c1ccccc1 | inactive: -17.7%
36 | NC(=S)NN=C1C2CC3CC(C2)CC1C3 | inactive: 11%
37 | COc1ccc2[nH]c3c(=O)n(N)c(C)nc3c2c1 | inactive: 18.5%
38 | O=S(=O)(Nc1ccc(S(=O)(=O)Nc2ncccn2)cc1)c1ccc(Cl)cc1 | inactive: 6.54%
39 | C/C(=N/N1CCN(c2ccccc2)CC1)c1cccc([N+](=O)[O-])c1 | inactive: 23.4%
40 | COc1ccc(/C=N/NC(=O)c2cccnc2)c2ccccc12 | inactive: 18.3%
41 | NC(=O)CC[C@H](NC(=O)c1ccc(Cl)cc1)C(=O)NNC(=O)COc1cccc(Br)c1 | inactive: 11.9%
42 | O=C(NC(=S)Nc1ccc(N2CCCCC2)cc1)c1ccc2c(c1)OCCO2 | inactive: 17.6%
43 | CCn1c(O)c(N=NC(=O)C(O)c2ccccc2)c2ccccc21 (stereo unspecified) | inactive: -22.5%
44 | CCCCOc1ccc(OCCNC(=O)C2CCCN2C(=O)Nc2ccccc2)cc1 (stereo unspecified) | inactive: -5.74%

Row | SMILES | growth rescue (activation)
45 | COc1ccccc1NC(=O)Cc1nnc(SCC(=O)NC2CCCCC2)n1C | inactive: 0.664%
46 | COc1cccc(CNc2ncnc3cc(Cl)ccc23)c1 | inactive: -4.91%
47 | Cc1cc(Br)ccc1NC(=O)CNC(=O)CN(C)C1CCS(=O)(=O)C1 (stereo unspecified) | inactive: 7.31%
48 | Cc1ccc(OCC(=O)N2CCN(S(=O)(=O)c3ccc(Cl)cc3)CC2)c([N+](=O)[O-])n1 | inactive: 1.55%
49 | Cc1c(Cl)cccc1NC(=O)N1CCN(C(=O)c2ccco2)CC1 | inactive: 5.74%
50 | Cc1ccccc1SCCNC(=O)c1ccccc1Br | inactive: -1.46%
51 | C=CCN(C(=O)Nc1ccc(OC)cc1)c1nnc(-c2ccncc2)s1 | inactive: 13.7%
52 | Cc1ccnc(NC(=O)CN2C(=O)c3ccccc3C2=O)c1 | inactive: 3.61%
53 | Cc1ccc(S(=O)(=O)Nc2ccc(S(=O)(=O)NCC3CCCO3)cc2)cc1 (stereo unspecified) | inactive: 7.99%
54 | Cc1cc(NC(=O)CS(=O)CC(=O)Nc2c(C)cccc2C)ccc1-n1cnnn1 (stereo unspecified) | inactive: 5.73%
55 | Cc1ccc(NC(=O)NC(=O)COc2c(F)c(F)cc(F)c2F)c(C)c1 | inactive: -5.44%
56 | O=C(CN1CCC(C(=O)c2ccc(F)cc2)CC1)Nc1ccccc1Cl | inactive: -3.51%
57 | Cc1ccc(NC(=S)NCCc2ccccc2)nc1 | inactive: 11%
58 | Cc1ccc(/C=C/C(=O)NCCCN2CCN(CCCNC(=O)/C=C/c3ccc(C)o3)CC2)o1 | inactive: 13%
59 | O=C(N/N=C/c1cc(O)ccc1[N+](=O)[O-])c1ccc2c(c1)OCCO2 | inactive: 24.1%
60 | O=c1[nH]cnc(O)c1C(c1cccc([N+](=O)[O-])c1)c1c(O)nc[nH]c1=O | inactive: -6.85%
61 | O=C(c1ccco1)N1CCN(S(=O)(=O)Cc2ccccc2Cl)CC1 | inactive: -18.4%
62 | CCOc1ccc(S(=O)(=O)NCc2cccnc2)cc1C | inactive: -8.87%
63 | O=C(C1CCN(S(=O)(=O)c2cc(Cl)ccc2Cl)CC1)N1CCOCC1 | inactive: 6.99%
64 | CCc1ccc(N(CC(=O)NCc2ccco2)C(=O)CCC(=O)Nc2ccccn2)cc1 | inactive: 0.126%
65 | Cc1ccc(OCC(=O)N2CCOCC2)cc1C | inactive: -3.49%
66 | C/C(=N\NC(=O)c1ccc(Cl)c(Cl)c1)c1ccccn1 | inactive: 27.6%

Row | SMILES | growth rescue (activation)
67 | CN(C)C(=O)C1Cc2ccccc2CN1S(=O)(=O)c1cccs1 (stereo unspecified) | inactive: 4.91%
68 | COc1ccc2[nH]c(=O)c(CN(C(=O)c3cccnc3)c3ccc(C)cc3C)cc2c1 | inactive: 4.74%
69 | COc1ccc([N+](=O)[O-])cc1NC(=O)Cc1ccc(Cl)cc1 | inactive: 11.9%
70 | Oc1c(C=Nc2ccccc2)sc2ccccc12 | inactive: 6.93%
71 | COc1ccccc1N(C)S(=O)(=O)c1ccc(C(=O)Nc2cccc(Br)c2)cc1 | inactive: 5.78%
72 | CC(C)Nc1nc(NC(C)C)nc(Nn2cnnc2)n1 | inactive: -12.2%
73 | O=S(=O)(NCc1ccccc1)NCc1ccccc1 | inactive: 7.85%
74 | COc1ccc(NC(=O)CSc2nnc(NC(=O)C3CCC3)s2)cc1 | inactive: 13.3%
75 | Cc1ccccc1Nc1nc(N)nc(CSc2nnc(-c3ccccc3)n2C)n1 | inactive: 33.1%
76 | CCCc1cc(=O)[nH]c(SCc2nc3ccc([N+](=O)[O-])cc3[nH]2)n1 | inactive: 20.6%
77 | Cc1ccc(NC(=O)COC(=O)Cc2ccc(Br)cc2)cc1S(=O)(=O)N1CCOCC1 | inactive: -2.42%
78 | O=S(=O)(NCc1ccccc1F)NCc1ccccc1F | inactive: 17.2%
79 | Cc1ccsc1C(=O)NCCC(c1ccccc1)c1ccccc1 | inactive: 26%
80 | CC(C)Nc1ncnc2c1ncn2[C@H]1CN(C2CCCC2)C[C@@H](CO)O1 | inactive: -2.59%
81 | Cc1ccc(C(C)C)c(OCC(O)CN(C)Cc2ccccc2)c1 (stereo unspecified) | inactive: 3.37%
82 | COc1ccc(C2CC(c3cccs3)=NN2C(=O)CCC(=O)O)cc1OC (stereo unspecified) | inactive: -1.16%
83 | CN(CC(=O)Nc1ccc(F)cc1Cl)Cc1cccs1 | inactive: 11%
84 | O=C1NN(c2ccc(Br)cc2)C(=O)/C1=C\c1ccc(O)cc1O | inactive: -0.864%
85 | COc1ccc(Oc2nc3c(C)cccn3c(=O)c2/C=C(\C#N)c2nc3ccccc3[nH]2)cc1 | inactive: 16%
86 | O=S(=O)(c1cccc(-c2cn3cccnc3n2)c1)N1CCCCCC1 | inactive: 17.4%
87 | CC(=O)Nc1ccc(N(C(=O)c2ccco2)C(C(=O)NC2CCCC2)c2ccc(N3CCOCC3)cc2)cc1 (stereo unspecified) | inactive: 5.47%
88 | CCOC(=O)c1c(NC(=O)c2cccs2)sc(C)c1C | inactive: 8.79%

Row | SMILES | growth rescue (activation)
89 | Cc1cscc1-c1cc2nc(NCCCN(C)C)n(C)c(=O)c2s1 | inactive: 5.81%
90 | COc1cccc(CN(C)C(=O)C23CC4CC(CC(C4)C2)C3)c1 | inactive: 22.8%
91 | COc1ccc(N2CCN(CC(=O)Nc3ccccc3SC)CC2)cc1 | inactive: 14.7%
92 | O=C(COC(=O)c1cccc(C(F)(F)F)c1)NC(=O)NC1CCCC1 | inactive: 19.7%
93 | CC1(C(=O)Nc2cccnc2)Cc2c(-c3ccccc3)ccnc2O1 (stereo unspecified) | inactive: 6.63%
94 | CC(C)c1ccccc1OCCNC(=O)c1cccnc1 | inactive: 8.5%
95 | CCN(CC)CCN1C(=O)c2oc3ccccc3c(=O)c2C1c1ccc(C)cc1 (stereo unspecified) | inactive: -40.9%
96 | O=C(COc1ccc(S(=O)(=O)N2CCOCC2)cc1)N1CCN(c2ccccc2)CC1 | inactive: 13.2%
97 | Cc1cc(Nc2ccc(C)c(Cl)c2)nc(N2CCOCC2)n1 | inactive: 18.5%
98 | O=C(Cc1c(F)cccc1Cl)Nc1ccc(S(=O)(=O)NCC2CCCO2)cc1 (stereo unspecified) | inactive: -9.16%
99 | CC(C)(C)CC(=O)N[C@@H](Cc1ccccc1)c1nc2ccccc2[nH]1 | inactive: 1.39%
100 | CCn1c(SCC(=O)N2CCN(c3ccc(F)cc3)CC2)nc2ccccc2c1=O | inactive: -4.5%
101 | COC(=O)Cn1c(=O)c2c(nc3n2CCCN3CCc2ccccc2)n(C)c1=O | inactive: 2.2%
102 | Cc1ccccc1-c1ocnc1C(=O)Nc1ccccc1NC(=O)c1ccccn1 | inactive: 7.37%
103 | O=C(Nc1ccc(S(=O)(=O)Nc2nccs2)cc1)C1CC(=O)N(c2ccccc2)C1 (stereo unspecified) | inactive: 1.47%
104 | Clc1ccc(N2CCN(c3nc4nonc4nc3N3CCSCC3)CC2)nc1 | inactive: -1.89%
105 | O=C1CCC(C(=O)OCC(=O)c2c[nH]c3ccccc23)=NN1 | inactive: 0.727%
106 | Cc1occc1C(=O)Nc1ccc(S(N)(=O)=O)cc1 | inactive: -9.46%
